Source: PubChem BioAssay AID1918949 (Molecular Pharmacology Branch, DTP, NCI, 2023)
Not every entry of the source has a single result; some have several. The other results are left out here. The source may hold further records. Values that stand side by side are repeats (runs, samples, wells, individuals or studies). Additions like (4×) say how often a value occurs here.

Test system: K24384-001-R-PDC complex spheroid viability
Assay: Anticancer human tumor K24384-001-R-PDC patient-derived pancreatic adenocarcinoma cell line growth inhibition
Conditions: stronger effect = lower value
Description: Multicellular complex tumor spheroid response to LSD1 Inhibitor Iadademstat in combination with a variety of drugs and investigational agents in selected tumor cell lines
The current study was undertaken to assess response to LSD1 inhibitors in combination with standard-of-care drugs and investigational agents in solid tumor complex spheroid models as well as in the K-562 leukemia. Complex spheroids include a stromal component modeled by human endothelial cells (HUVEC) and fibroblasts modeled by human mesenchymal stem cells (MSCs). The concentration ranges selected for each drug and investigational agent were based upon clinically achievable concentrations if the clinical Cmax of the agent was known.
Compounds. The drugs and investigational agents used in this study are listed on Table 1. All of the agents used, including staurosporine (NSC755774) and gemcitabine (NSC613327), were obtained from the Developmental Therapeutics Program, NCI. FDA-approved anticancer drugs are available from the NCI at http://dtp.nci.nih.gov/branches/dscb/oncology_drugset_explanation.html. Drugs and investigational agents were >95% pure by proton nuclear magnetic resonance (NMR) and liquid chromatography/mass spectrometry (LC/MS). Stock solutions were prepared at 400x in DMSO, stored at -70 degrees C, and diluted in fresh medium prior to their use. The final concentration of DMSO in cell culture wells never exceeded 0.25% (v/v). The FDA-approved anticancer drug set is available from the Developmental Therapeutics Program at https://dtp.cancer.gov/organization/dscb/obtaining/available_plates.htm. All drugs and investigational agents were tested over a range starting from a high concentration at or near the clinical Cmax and decreasing in half-log increments. If the clinical Cmax for an agent had not been determined, the highest concentration tested was 10 microM.
Cell Lines. The patient-derived cancer cell (PDC) lines: 292921-168-R-J2-PDC, K24384-001-R-PDC, and 521955-158-R2-J5-PDC pancreatic carcinomas, 556581-035-R-J1 ovarian carcinoma, 324938-238-R-J1-PDC, 855422-203-R-J1-PDC and 883617-216-R-J1-PDC urothelial bladder carcinomas, 743489-274-T-PDC renal cell carcinoma, 138582-R-J1 Merkel cell tumor, K60290-347-R-J1 and K57222-313-R-J1-PDC glioblastomas, 653999-131-R-J2-PDC, LG0703-F948-PDC, and 349418-098-R-PDC non-small cell lung carcinomas, 885512-296-R-J2-PDC, 171881-019-R-J1-PDC breast carcinomas and 186277-243-T-J2-PDC and 233499-124-R-J2-PDC colon carcinomas were obtained from the NCI Patient-Derived Models Repository (PDMR, https://pdmr.cancer.gov). The established cell lines NCI/ADR-RES (RRID:CVCL_14520 and OVCAR-5 (RRID:CVCL_1628) ovarian carcinomas, 786-O (RRID:CVCL_1051) and A498 (RRID:CVCL_A498) renal cell carcinoma, NCI-H211 (ATCC, cat. CRL-5824; RRID:CVCL_1529), NCI-H196 (ATCC, cat. CRL-5823, RRID:CVCL_1509), SW 1271 (ATCC, cat. CRL-2177, RRID:CVCL_1716) and NCI-H1876 (ATCC, cat. CRL-5902, RRID:CVCL_1503) small cell lung carcinomas, MDA-MB-231 (RRID:CVCL_0062) and MDA-MB-468 (RRID:CVCL_0419)breast carcinomas (10-12). Pooled donor human umbilical vein endothelial cells (HUVEC, Lonza, cat. CC-2519) and human mesenchymal stem cells (hMSC, Lonza, cat. PT-2501) were purchased from Lonza (Walkersville, MD).
Cell Culture. All cells were maintained in an incubator at 37 degrees C and 5% CO2 with 95% humidity. The PDC lines were cultured according to standard operating procedures established by the NCI PDMR (https://pdmr.cancer.gov). Briefly all PDCs were thawed and cultured in Matrigel-coated flasks prepared with a working solution of 1X Ham's F-12 nutrient mix, without supplementation (Invitrogen, Waltham, MA, cat. 11765054), 100 U/mL penicillin-streptomycin (Invitrogen, cat. 15140122), and 2.5% Matrigel (Corning Inc., Corning, NY, cat. 354248) for the first three passages. […]
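Further: spheroids exposed to agents for seven days before luminescence viability reading; 100% = DMSO vehicle control viability.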

In the case of `NC1CCC(NC2CC2c2ccccc2)CC1` (stereo not drawn), the viability, T/C (compound alone 0.1 µM) was 86.5, 85.6, 99.8, 87, 94.8, 74.2, 78.7, 80.5, 81.2, 77.9, 92.1, 84.6, 77.5, 89.4, 78.8, 98.1, 85.9, 89.8, 90.4, 87.9, 85.3, 84.8, 93.1, 80.4, 72.2%, the viability, T/C (compound alone 1 µM) was 70.8, 83.8, 79.8, 81, 96, 76.3, 88.2, 89.6, 85.2, 76.7, 78, 83.2, 69.1, 70.7, 71.8, 89.3, 81.3, 101, 69.6, 79.1, 81.2, 63.9, 75.4, 82.6, 78.2% and the viability, T/C (compound alone 3.16 µM) was 68.6, 78.2, 96.3, 81 (2×), 81.3, 86.6, 84.3, 78.6, 98.5, 86.9, 72.5, 90.9, 80.5, 82.9, 71.6, 91, 85.8, 79.9 (2×), 71.7, 74.3, 67.9, 78.3, 72%. For the same molecule, the viability, T/C (compound alone 10 µM) was 78.1, 73.2, 91, 91.1, 74.6, 74.7, 67.2, 80.4, 75.8 (2×), 70.8, 76, 76.4, 81, 88.5, 77.4, 75.5, 76.2, 65.4, 85.6, 63.9, 75.2, 69.4%.

With `NC1CC1c1ccc(-c2cccc(O)c2)cc1` (stereo not drawn) the viability, T/C (compound alone 0.316 µM) was 105, 87, 86.7, 78.7, 88.9, 91.7, 85.6, 76.8, 89.9, 89.2, 114, 93.5, 82.4, 69.2, 98.1, 78.4, 100, 101, 91.5, 85.2, 96.6, 92.1, 102, 78.5%, the viability, T/C (compound alone 1 µM) was 103, 86.6, 83.4, 77.2, 71.1, 99.6, 77.4, 85.6, 80.1, 84.5, 101, 97.3, 75.7, 88.6, 104, 98.2, 76, 99.9 (2×), 118, 87.6, 90.7, 92.1, 97.7, 93.6% and the viability, T/C (compound alone 3.16 µM) was 108, 81.4, 74.2, 73.2, 76, 87.7, 91.8, 69.5, 78.9, 82.8, 94.8, 96.2, 69.3, 72.3, 99.1, 93.1, 64.3, 105, 112, 75.6, 73.4, 91.4, 104, 111, 78.1%. The viability, T/C (compound alone 10 µM) was 113, 109 (2×), 80, 79, 78.9, 106 (3×), 97.2, 74.5, 66.6, 72, 103, 62.6, 67.5, 100, 77.8, 95.7 (2×), 115, 71.7, 68, 102, 67.8%.
